In PubChem BioAssay AID1508642 (National Center for Advancing Translational Sciences (NCATS), 2021):
The campaign covered roughly 43,000 compounds. About 200 (0.47%) were called active. The inconclusive results got no clear call from the source; some entries with a clear call stand among them for comparison. Calls follow the shape of the dose curve; as a rule, active = well fitted cell-killing curve with a large enough effect; inconclusive = small, poorly fitted or top-dose-only effect, or effect the other way; inactive = flat fitted curve, though single readings scatter. Potencies of inconclusive entries are doubtful fits and often do not repeat.

test: Cell viability qHTS assay in S16 Pmp22-F2sN cells; conditions: S16 Pmp22-F2sN Schwann cells viability, CellTiter-Glo, 24 h; series mostly up to 57.5 µM; also: nearly all actives have a fitted effect of over 65% in size
Method in brief: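 Viability was measured by CellTiter-Glo luminescence (15 min, room temperature). This followed 24 h at 37 °C of compound exposure (23 nL pin transfer) in S16 Pmp22-F2sN Schwann cells, 500-1,000 per well.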
Potency is read from the fitted curve at half-maximal effect; tags tell the direction and shape of the fitted curve.

| Structure (SMILES) | Potency |
| --- | --- |
| CCOc1ccc(CNS(=O)(=O)c2ccc3c(c2)CC(C)N3C(C)=O)cc1OC (stereo unspecified) | inconclusive: 22.4 µM [cytotoxic, partial curve, poor fit] |
| CCN(CC)S(=O)(=O)c1ccc(NC(=O)c2c(C)oc3ncnc(N4CCCCC4)c23)cc1 | inconclusive: 2.51 µM [cytotoxic, full curve, poor fit] |
| Cc1ccc(C)c(N2CCN(S(=O)(=O)c3cc(C(=O)Nc4ccccc4C(F)(F)F)ccc3F)CC2)c1 | inconclusive: 28.2 µM [cytotoxic, partial curve, poor fit] |
| Cc1nc2cc(-c3cccc(F)c3)nn2c(C)c1CCC(=O)NC(C)c1ccccc1 (stereo unspecified) | inconclusive: 35.5 µM [cytotoxic, single point] |
| CCCCOc1ccccc1C1CC(=O)Nc2cc(C)c(C)cc21 (stereo unspecified) | inconclusive: 15.8 µM [cytotoxic, partial curve] |
| CCOc1ccc(S(=O)(=O)N2CCN(Cc3nc4ccc(C)cc4o3)CC2)cc1 | inconclusive: 31.6 µM [cytotoxic, single point] |
| CCCCNC(=O)c1ccc2c(c1)N=C(CC)c1ccccc1S2 | inconclusive: 7.08 µM [cytotoxic, partial curve] |
| O=C(Nc1ccccc1)Nc1nnc(SCC(=O)N2CCCCC2)s1 | inactive |
| O=C(NCCCN1CCN(c2cccc(Cl)c2)CC1)c1ccc2nc(Cc3ccccc3)oc2c1 | inconclusive: 31.6 µM [cytotoxic, single point] |
| O=S(=O)(c1ccc(-c2cnc(C3CC3)o2)cc1)N1CCN(c2ccccc2F)CC1 | inconclusive: 10 µM [cytotoxic, partial curve] |
| CCc1ccc(NC(=O)Cn2nc(SC)c(S(=O)(=O)c3ccc(OC)cc3)c2N)cc1 | inconclusive: 0.0398 µM [rising, full curve, poor fit] |
| Cc1cn(C)c(CC(=O)Nc2ccc(F)cc2Cl)c1C(=O)O | inactive |
| CSc1ccc(-c2nc3cccc(C)n3c2Nc2ccc3c(c2)OCO3)cc1 | inconclusive: 35.5 µM [cytotoxic, single point] |
| Cc1cc(-c2ccc(S(=O)(=O)Nc3ccc(Cl)cc3)cc2)on1 | inconclusive: 3.98 µM [cytotoxic, full curve] |
| CC(C)Oc1ccc(CNC(=O)c2sc3ncccc3c2-n2cccc2)cc1 | inconclusive: 2.51 µM [cytotoxic, partial curve, poor fit] |
| COc1ccccc1N1CCN(S(=O)(=O)c2ccc(F)c(C(=O)Nc3ccc(Cl)cc3C(F)(F)F)c2)CC1 | inconclusive: 35.5 µM [cytotoxic, partial curve, poor fit] |
